Measurements from article PMC4336329 (PLoS ONE, 2015).
In all, about 310,000 compounds went through this assay and about 2,200 (0.71%) showed an effect of 50% or more. The effect is printed as a negative number. The list shows a part of the results.

target: human ether-à-go-go-related gene (hERG) potassium channel (human, UniProt Q12809); assay: primary screen, population patch clamp on CHO cells stably expressing hERG
Sequence (Q12809 whole entry, looked up): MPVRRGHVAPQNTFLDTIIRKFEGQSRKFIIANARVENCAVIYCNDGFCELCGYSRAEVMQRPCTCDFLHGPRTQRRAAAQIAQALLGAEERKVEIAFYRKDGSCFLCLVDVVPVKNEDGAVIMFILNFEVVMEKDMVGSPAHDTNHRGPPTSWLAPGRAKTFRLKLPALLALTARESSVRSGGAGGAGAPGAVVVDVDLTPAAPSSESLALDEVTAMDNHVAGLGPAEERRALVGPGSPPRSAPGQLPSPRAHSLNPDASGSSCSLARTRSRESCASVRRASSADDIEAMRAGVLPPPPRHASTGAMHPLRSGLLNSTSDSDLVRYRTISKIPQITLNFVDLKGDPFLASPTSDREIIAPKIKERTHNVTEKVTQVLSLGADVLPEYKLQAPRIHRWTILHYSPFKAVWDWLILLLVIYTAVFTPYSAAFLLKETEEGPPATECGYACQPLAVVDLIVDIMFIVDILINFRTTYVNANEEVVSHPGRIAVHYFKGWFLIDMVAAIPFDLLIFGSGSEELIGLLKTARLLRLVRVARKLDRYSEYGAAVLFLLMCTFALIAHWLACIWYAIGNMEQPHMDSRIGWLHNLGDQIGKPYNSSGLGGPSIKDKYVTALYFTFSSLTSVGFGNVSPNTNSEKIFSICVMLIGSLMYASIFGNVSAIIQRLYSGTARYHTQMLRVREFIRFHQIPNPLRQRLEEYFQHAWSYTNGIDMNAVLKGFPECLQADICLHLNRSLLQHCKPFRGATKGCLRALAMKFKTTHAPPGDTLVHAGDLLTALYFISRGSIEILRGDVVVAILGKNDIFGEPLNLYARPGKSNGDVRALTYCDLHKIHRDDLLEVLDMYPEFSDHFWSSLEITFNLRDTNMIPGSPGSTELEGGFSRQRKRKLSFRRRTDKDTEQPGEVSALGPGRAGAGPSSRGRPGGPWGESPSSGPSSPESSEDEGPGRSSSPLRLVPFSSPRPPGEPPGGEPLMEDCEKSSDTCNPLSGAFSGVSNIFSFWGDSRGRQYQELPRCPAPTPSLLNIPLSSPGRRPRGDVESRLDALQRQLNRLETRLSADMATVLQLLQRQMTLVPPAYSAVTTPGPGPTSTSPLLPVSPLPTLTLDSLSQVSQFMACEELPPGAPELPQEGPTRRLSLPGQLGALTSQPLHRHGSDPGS

Row | Compound | hERG current change (%, negative = inhibition) at 1uM [%]
1 | CC(C)(O)C#Cc1ccc(C(=O)Nc2ccc3c(c2)OCO3)s1 | 19.2
2 | O=C1NN(c2ccc(Cl)c(Cl)c2)C(=O)/C1=C/c1cccc(OC(=O)c2cccs2)c1 | 18.8
3 | C/C(=C\c1ccccc1)CN1CCN(C(C)C)C(CCO)C1 (stereo not drawn) | 2.77
4 | O=[N+]([O-])c1cc(Br)cc(/C=N/n2cnnc2)c1O | 14.3
5 | COc1cc(/C=N/NC(=O)CC2(C)OCCCO2)ccc1OCc1ccc(Cl)cc1Cl | 8.41
6 | CN(Cc1ccccc1)C(=O)CCNS(=O)(=O)c1ccc2c(c1)oc(=O)n2C | -0.783
7 | CCN(CC)CCCOC(=O)C1(c2ccccc2)CCCC1 | -4.91
8 | C=CCN1C(=O)c2ccc(C(=O)OCC(=O)Nc3ccccc3OC)cc2C1=O | 6.4
9 | COC(=O)c1c(NC(=O)C(=O)NCC2CCCO2)sc2c1CC(C)(C)OC2 (stereo not drawn) | 49.5
10 | O=C(Cc1cccs1)NNC(=S)NC(=O)c1ccccc1 | 12.9
11 | O=C(/C=C/c1ccc(Br)cc1)NC(=S)N1CCOCC1 | 12.8
12 | CC(OC(=O)CNC(=O)c1ccc2c(c1)OCO2)C(=O)NCCC1=CCCCC1 (stereo not drawn) | 2.22
13 | COc1ccc(N(CC(=O)O)S(=O)(=O)c2ccc(OC)c(OC)c2)cc1 | 2.5
14 | CCNC(=S)NNC(=O)c1cc(-c2cccc(OCC)c2)nc2ccccc12 | -5.51
15 | CCn1cc(C2=NOC(C(=O)O)C2)c(C)n1 (stereo not drawn) | -6.47
16 | CC(C)(C)c1ccc(S(=O)(=O)NNC(=O)c2cc3ccccc3[nH]2)cc1 | 11.4
17 | Cc1ccc(C(=O)N2CCN(C(=O)c3ccccc3)C2c2ccc(N(C)C)cc2)cc1 (stereo not drawn) | 4.38
18 | CC1(C(=O)NCCc2c[nH]c3ccccc23)C=CCN1C(=O)c1ccccc1 (stereo not drawn) | 3.34
19 | COc1ccccc1C1N=C(c2ccccc2C)NO1 (stereo not drawn) | 14.4

Row | Compound | hERG current change (%, negative = inhibition) at 1uM [%]
20 | CC(=O)Nc1ccc(S(=O)(=O)NC(C)c2ccncc2)cc1 (stereo not drawn) | 3.61
21 | COc1ccc(OCC(O)CN2CC(C)OC(C)C2)cc1.Cl (stereo not drawn) | 14.5
22 | CN(C)C(=O)c1ccccc1NC(=O)Cc1cccc2ccccc12 | 18.3
23 | Cc1onc(-c2c(F)cccc2Cl)c1C(=O)N1CCN(c2ncccn2)CC1 | -6.59
24 | Cc1cccc(C)c1NC(=O)COC(=O)c1ccccc1O | 9.37
25 | COc1ccc(N2CCN(C(=O)CCC(=O)NNc3nc4ccccc4c4nc(C)nn34)CC2)cc1 | 1.69
26 | C/C(=N\Nc1ccc(C(=O)O)cc1)c1ccc(-n2ccnc2)cc1.O=S(=O)(O)O | 5.91
27 | COc1ccc(OC)c(/C=C/C(=O)NC2=NCCS2)c1 | 7.05
28 | O=C(O)c1nnn(-c2cc(C(F)(F)F)cc(C(F)(F)F)c2)c1-c1ccccc1 | 11.1
29 | NC(=O)COC(=O)/C=C/c1ccc(S(=O)(=O)N2CCCCCC2)cc1 | 9.9
30 | COc1ccc(CNC(=O)C(C)N2C(=O)COc3ccc(C)cc32)c(OC)c1 (stereo not drawn) | 10.4
31 | CCCN1Cc2cccc(C(=O)NCCc3ccccc3)c2C1=O | 11.4
32 | CCCCC(CC)C(=O)NCCc1ccc(S(N)(=O)=O)cc1 (stereo not drawn) | 7.34
33 | O=c1cc(O)nc(SCc2ccccc2Cl)[nH]1 | 12
34 | COCCSc1nnc(NC(=O)c2ccc(NC(=O)C(C)C)cc2)s1 | 9.46
35 | CCOc1ccccc1N(CC(=O)N(C)Cc1ccccc1)S(=O)(=O)c1ccccc1 | -1.94
36 | Nc1nnc(CC(=O)Nc2ccccc2)s1 | 9.21
37 | CCN(CC)Cc1c[nH]c2ccccc12 | 6.6
38 | CCOc1ccc(C(=O)C(C)OC(=O)Cn2[nH]c(=O)c3ccccc3c2=O)cc1 (stereo not drawn) | 4.04

Row | Compound | hERG current change (%, negative = inhibition) at 1uM [%]
39 | Cc1ccc(S(=O)(=O)N2C(=O)CCC2C(=O)O/N=C(\N)c2ccccc2)cc1 (stereo not drawn) | 5.82
40 | Cn1c(=O)[nH]c(Nc2ccc(F)cc2)c([N+](=O)[O-])c1=O | 7.68
41 | Cc1cc(C)c2c(=O)[nH]c(SCC(=O)Nc3ccc(Br)cc3)nc2n1 | 18.2
42 | CN(C)S(=O)(=O)c1cc(NC(=O)CNCc2ccc(F)cc2)ccc1Cl.O=C(O)C(=O)O | 5.02
43 | CCC1(CC)Cc2ccccc2C(=C(C#N)C#N)N1 | 13.6
44 | O=C(COC(=O)c1ccc(Br)o1)NC1CCCc2ccccc21 (stereo not drawn) | 11.5
45 | C=CCNCCOc1ccccc1-c1ccccc1.O=C(O)C(=O)O | 3.97
46 | CCN1CCN(CCCOc2ccc(Cl)cc2Br)CC1.O=C(O)C(=O)O | -45.7
47 | Cc1ccc(S(=O)(=O)N2CCN(CC(=O)N/N=C\c3ccncc3)CC2)cc1 | -26.2
48 | O=C(O)c1ccc(S(=O)(=O)N(Cc2cccs2)CC2CCCO2)cc1 (stereo not drawn) | 9.71
49 | O=C1CNC(=S)N1CCOc1ccccc1 | 12.7
50 | COc1ccccc1N1CCN(C2CCN(C(=O)c3cccc(F)c3)CC2)CC1.O=C(O)C(=O)O | 8.64
51 | O=[N+]([O-])c1ccc2nccn2c1 | 4.94
52 | CCC(C)N1C(=O)NC(=O)C2(Cc3c(ccc4ccccc34)N(C)C2)C1=O (stereo not drawn) | 8.68
53 | N/C(=N\OC(=O)CSc1ccccc1)c1ccccn1 | 10.9
54 | CC(C)C(=O)Nc1cccc(C(=O)NCc2ccc(S(N)(=O)=O)cc2)c1 | 6.91
55 | CC(C)(CC(=O)O)CC(=O)N1CCN(c2nc3cc(Cl)ccc3s2)CC1 | 9.82
56 | COC(=O)C1=C(C)N(Cc2ccco2)C(=O)/C1=C\c1ccc([N+](=O)[O-])cc1 | 5.21
57 | Cc1ccccc1NC(=O)c1ccccc1NC(=O)CCC(=O)O | 12.6
